The source of these data is article PMC10668032.

The other results are listed elsewhere or left out. At the low end of the ranking the order means little.

In the assay the target is SIX1 homeodomain (reference allele) (UniProt Q15475). As to the kind of experiment: universal protein binding microarray. As to conditions: Universal all-10-mer PBM (8x60K, AMADID 030236), 300 nM GST-tagged protein, Alexa Fluor 488 anti-GST; buffer, salt, pH and temperature not stated; high values mean tight binding; most listed sequences are background and not binding sites; double strand, one strand shown.
In the case of GGCTTAAA, the binding signal is -0.149 E-score.

Consider GCAATCAA, for which the binding signal is -0.235 E-score. To ACTCCGCT belongs -0.149 E-score.

For the sequence GGCTGTGA, the binding signal stood at 0.0255 E-score. To GAAGAGTC belongs -0.309 E-score; to CCACTCAA, -0.138 E-score. As for ATCCACCG, the binding signal is 0.235 E-score.

As to CGTGATAC, the binding signal worked out at 0.48 E-score.

On to ATCTCTCC, for which the binding signal came out at 0.184 E-score. As for ACGGGGAT, the binding signal was determined as 0.296 E-score. On to AGCCGGTG, for which the binding signal worked out at 0.0707 E-score. Take GACCTACA: the binding signal was -0.267 E-score.

AGACTGAG: the binding signal is -0.211 E-score. Next, GAGAAGGC: -0.0328 E-score; ATCGGCCC: 0.13 E-score; TGGTATAA: 0.287 E-score. CCCGGAAA: the binding signal was -0.127 E-score. To GAACGGCC belongs -0.101 E-score; to ATGACCCC, 0.282 E-score; to TGCACTAA, -0.0913 E-score. To CATGAGTC belongs -0.0787 E-score; to ACAGAGTA, -0.016 E-score. Next, CAACTGAA: -0.214 E-score; CCGTAAGC: -0.038 E-score; CCCCTATC: 0.405 E-score. Regarding CTATGGAA, the binding signal was -0.17 E-score. Next, GCATCCAC: 0.114 E-score. Next, AATCGTAC: -0.058 E-score; CGCTTCTA: 0.0616 E-score; AACTATTG: -0.0943 E-score. Next, ACCGCAGG: -0.00646 E-score; CAAATGCC: -0.0998 E-score.

As for CTCAGTTA, the binding signal is -0.096 E-score.

Consider CGCGGATC, for which the binding signal is 0.365 E-score. Take CCATTGGC: the binding signal is 0.0162 E-score. Turning to AACCCATG, the binding signal was found to be 0.0837 E-score. To CCGCCAAG belongs -0.0729 E-score; to ACCATACG, 0.115 E-score; to ACGCTGTC, -0.204 E-score. Regarding CGTCTCCA, the binding signal was 0.0873 E-score. As to CTAGGTTC, the binding signal was -0.0301 E-score. With GAAGGCAA, the binding signal is -0.124 E-score.

Take CCGGACAC: the binding signal is 0.192 E-score.

Turning to GCCGTTTA, the binding signal was -0.0351 E-score. To GAATTGAC belongs -0.244 E-score.

For the sequence CCGTTGCC, the binding signal is -0.0842 E-score.

In the case of AGAAAGCA, the binding signal is -0.0116 E-score. For ACCGTGCA, the binding signal was determined as 0.0903 E-score.

On to AGTCGATG, for which the binding signal is -0.0992 E-score.

With TGTGTCAA, the binding signal turned out to be 0.0145 E-score. With CAGCTATC, the binding signal is 0.25 E-score.

As for CCTGTATC, the binding signal amounted to 0.365 E-score. To CGTAAGAA belongs -0.228 E-score; to TGGGTGAA, -0.022 E-score.

For the sequence AATACGTG, the binding signal came out at 0.267 E-score. To CAGCCTGG belongs -0.0842 E-score.

Regarding GCGATAAA, the binding signal is -0.168 E-score. Next, ACATCCTA: 0.0824 E-score; TAATGATA: 0.36 E-score. For the sequence AACACAGT, the binding signal was -0.158 E-score. With TGTAGACA, the binding signal amounted to 0.0391 E-score. As to GTGCAGTA, the binding signal amounted to 0.0585 E-score. Regarding AGCTAAAA, the binding signal was -0.104 E-score. With CCGTTGAA, the binding signal is -0.244 E-score. As to CGAATGCA, the binding signal is -0.079 E-score. To AGTTTAAA belongs -0.146 E-score; to AGACAAAG, -0.115 E-score; to CGGTAACC, -0.0392 E-score.

In the case of ATCGATCG, the binding signal turned out to be 0.256 E-score. Next, CCTTACCC: 0.0298 E-score.

Turning to GAGCTCGA, the binding signal was -0.0499 E-score.

As to CCCTAGAA, the binding signal was -0.197 E-score. To ACACGCGT belongs 0.0112 E-score. Next, ATCTCACG: 0.134 E-score; AATCATGC: 0.047 E-score; ATAGACAC: 0.285 E-score. Regarding CGAGGAAC, the binding signal worked out at 0.0208 E-score. To GGTGTTCA belongs 0.165 E-score; to GCCGCCTA, -0.129 E-score; to ACCGCCCG, -0.0255 E-score. For AAAGCTCC, the binding signal is -0.248 E-score.

Regarding CGACCAAC, the binding signal is -0.186 E-score. Next, GTCTAGTA: 0.158 E-score. Next, CCTCATAA: 0.00667 E-score; GACAGAAC: -0.0427 E-score. Next, AGTTATTG: -0.0654 E-score; CTACGAAA: -0.0889 E-score.

Regarding GTAATAGA, the binding signal was -0.0653 E-score. In the case of GGTACAAC, the binding signal is -0.117 E-score. In the case of ACTTTACT, the binding signal was -0.361 E-score. With CTGCGAAA, the binding signal is -0.381 E-score. Turning to CTAGCGCC, the binding signal was -0.255 E-score.

With CGGTCTAA, the binding signal was -0.0459 E-score. To CCCTATGA belongs 0.0343 E-score; to CCGAGTGA, 0.167 E-score; to AGCGTGCG, -0.0271 E-score. For the sequence AAAGTTCT, the binding signal was -0.347 E-score. Turning to GGTAGCGA, the binding signal turned out to be 0.114 E-score.

As to ATTTTAGA, the binding signal was found to be 0.0268 E-score. Next, GAAGCGCC: -0.112 E-score; CGGTAAAC: -0.116 E-score; ACGCAAAG: -0.00129 E-score. Turning to GTTTCAGA, the binding signal was -0.151 E-score. In the case of ACGATGTG, the binding signal turned out to be 0.0198 E-score. Consider CATTGGCC, for which the binding signal is -0.103 E-score. For AAATGTTA, the binding signal was -0.299 E-score. With CCGACAGC, the binding signal was -0.151 E-score. To ATCTTGTC belongs 0.153 E-score; to GACCCCGC, 0.15 E-score.

In the case of CGTACACA, the binding signal turned out to be 0.0413 E-score. Next, CTTCCACC: -0.191 E-score; CGTTGGGA: -0.114 E-score. Consider CAAGTTCA, for which the binding signal was -0.0544 E-score.

In the case of TCCCGTCA, the binding signal was -0.145 E-score. Regarding GCTGTGGA, the binding signal was found to be 0.143 E-score.

Consider CGAACACC, for which the binding signal turned out to be 0.243 E-score. Next, ATTCCATG: -0.0628 E-score. As to CGGCCGCC, the binding signal is -0.165 E-score. Next, AAGAGCCA: -0.124 E-score. As to CATTCTCC, the binding signal is -0.119 E-score. Next, ATTTAGAC: 0.134 E-score; AGATCGCG: 0.22 E-score. ACGGTCAG: the binding signal is -0.288 E-score. To GCGCTGTA belongs -0.108 E-score; to GAGGCACA, -0.21 E-score; to GTTTTTCA, -0.169 E-score.

As for TCTCCCCA, the binding signal is 0.22 E-score.

With ACGCCAGG, the binding signal came out at 0.0961 E-score. Turning to CATGTGAG, the binding signal came to 0.152 E-score. With AAGTGCAG, the binding signal was -0.22 E-score. To GCGACTAA belongs -0.111 E-score; to GGTAGAAC, -0.227 E-score; to TATGAGCA, 0.0495 E-score. Next, CTTGTCAC: -0.27 E-score; CCAAGCTC: -0.143 E-score. Next, AAGTCAGG: -0.172 E-score. Turning to CCTCCTAG, the binding signal stood at 0.0733 E-score. Next, AATAGCCT: 0.0463 E-score; ACACGTGG: -0.0949 E-score. Next, CGAAGTGA: -0.0232 E-score; AGTGATAT: 0.451 E-score; CAACATGA: -0.174 E-score. Take AGTAGCCA: the binding signal is -0.191 E-score. To CTGGGCTA belongs -0.00118 E-score; to AAAGAAGC, -0.342 E-score.

CCTATCCA: the binding signal turned out to be 0.232 E-score. To GGGGAGAC belongs 0.0858 E-score; to CTGACAGA, 0.081 E-score. For the sequence ATATAATC, the binding signal came to 0.275 E-score. For the sequence AGCTGCGA, the binding signal is -0.0992 E-score.

In the case of ATGGAGCC, the binding signal was -0.0811 E-score. For CTGTAGAC, the binding signal is -0.159 E-score. In the case of AGGGTAGC, the binding signal was -0.00115 E-score. Take AACTTGCT: the binding signal was -0.277 E-score. As to ATAAGGGA, the binding signal came out at 0.00135 E-score. To ACGGCTAT belongs 0.0634 E-score; to CAGTCTCA, -0.0203 E-score. To GACAACCC belongs -0.126 E-score; to ACACTAGC, -0.0114 E-score.

GTACAAGA: the binding signal was -0.162 E-score. Next, ATATGATA: 0.443 E-score; GGGGAAGA: 0.113 E-score. With CGTCTGGC, the binding signal was -0.0601 E-score.

As to AGCGCTCC, the binding signal is -0.163 E-score. Regarding ATATGAAA, the binding signal was 0.0421 E-score.

As for CTCGCCTC, the binding signal is -0.0845 E-score. For AGCAAGAA, the binding signal was -0.137 E-score. Next, ACCCGTCG: -0.0508 E-score; ACAGATCA: 0.338 E-score; ACGACATC: -0.139 E-score. As for TGGGGGAA, the binding signal was -0.106 E-score. On to AGGGTTAA, for which the binding signal was -0.0894 E-score. Take CCGCAGTA: the binding signal was -0.0172 E-score. For TCAAAGGA, the binding signal is -0.162 E-score.

Take ATTACTCA: the binding signal turned out to be 0.0397 E-score. Next, TGAAGGAA: -0.339 E-score; AGAAACTA: -0.224 E-score.

Turning to GACCTGCC, the binding signal is -0.251 E-score. Next, GCAGGTGA: -0.0188 E-score; ACACCGAC: 0.256 E-score; CGCGGATA: 0.388 E-score. Take CTTATCTC: the binding signal stood at 0.0638 E-score. To AATTGCTC belongs -0.227 E-score; to GTAAATTA, -0.199 E-score; to CTTGATCA, 0.218 E-score. Next, TCCCAAAA: -0.117 E-score; GAGGCGGA: 0.0158 E-score. To ATCCAGAC belongs 0.0875 E-score; to GACAGATC, 0.286 E-score; to ATTATGCC, 0.109 E-score. Regarding ACAGATAC, the binding signal was 0.341 E-score.

As for GAAGCGCA, the binding signal is -0.293 E-score. To CACGCTAC belongs -0.107 E-score. In the case of CCCCGAAA, the binding signal came out at 0.0522 E-score.

Turning to AGCGAAGA, the binding signal is -0.042 E-score. For the sequence GCGGTTGA, the binding signal is -0.0628 E-score. Next, ATGACACA: -0.0804 E-score; GCTGCCCC: -0.0741 E-score; GCGAAATA: -0.0624 E-score. As to CGTTAACC, the binding signal was -0.0549 E-score.

For the sequence ATGAGGCC, the binding signal is -0.244 E-score. Next, GCAACCGA: 0.0749 E-score; CTAAGGCA: -0.25 E-score.

Turning to CTAATTAG, the binding signal was -0.0446 E-score. To ACACATCC belongs -0.16 E-score. Take CAGGGCTC: the binding signal was -0.0208 E-score.

ACATCGGT: the binding signal was determined as 0.0242 E-score. Next, AGTCTTTC: -0.228 E-score; GTAGGCGA: 0.0588 E-score.

On to CCGAATGA, for which the binding signal amounted to 0.127 E-score. Next, CCACTGCC: -0.104 E-score; TAGCTTGA: -0.0241 E-score; GGGGCGTA: 0.166 E-score. Take GGCGGATA: the binding signal stood at 0.403 E-score. Next, GGTGAGTA: 0.0492 E-score; GCTCATGA: 0.0179 E-score; CGGGTGTA: 0.265 E-score.

In the case of ACTCATTG, the binding signal was -0.123 E-score. Next, CGGAACAC: 0.0298 E-score.
